Assay results as given in the RNAGym collection of RNA variant scans (doi:10.7554/elife.90254).
The source gives no read counts; variants with many changes may rest on few reads.

B1: LINE1-mini (parent)
chain: GGCAGAGCUCAACACAGCGUGGCAAAGUGGCUGUGGCUAGACUGCC

Variants of: B1
Experiment: self-cleavage, relative activity (ratio to wild type); higher = more cleavage; in vitro, sequencing; the parent is a self-cleaving ribozyme
With C8U U28A G30U the self-cleavage was 0.12.
Variant G1C C8G G17U G40U has a self-cleavage of 0.02.
G19U G21A G30C C46G gave a self-cleavage of 0.11.
Work on G1A G7C C15U yielded a self-cleavage of 0.59.
With G7A U9G C15U G17A the self-cleavage was 0.02.
Work on G17U G27C A41U yielded a self-cleavage of 0.02.
A6G A16U G19U G21U showed a self-cleavage of 0.02.
Variant G22U G30U U32G has a self-cleavage of 0.34.
In the case of C3A G7U A12G A25U G29U G33U, the self-cleavage is reported as 0.13.
Work on C15A G17U A41U C42U yielded a self-cleavage of 0.08.
Work on G2A A4U C37G yielded a self-cleavage of 0.07.
C10U A12U A24G U43G showed a self-cleavage of 0.23.
In the case of A16U A25U C37U, the self-cleavage is reported as 0.06.
A4U U34G C37U showed a self-cleavage of 0.01.
Work on C15G G22C C37G yielded a self-cleavage of 0.03.
Work on C8U G33C C37U yielded a self-cleavage of 0.04.
In the case of C13G G21C G36U G44U, the self-cleavage is reported as 0.03.
In the case of C23U U38A C42A, the self-cleavage is reported as 0.22.
G7U U9G A14U G17A G35C showed a self-cleavage of 0.23.
Variant A4G G21A G27A has a self-cleavage of 0.42.
Variant C3U C8U C31U has a self-cleavage of 0.2.
A4C C10G C13A G33A G44C gave a self-cleavage of 0.01.
In the case of A16G U38C C45U, the self-cleavage is reported as 0.02.
With C10U G40A G44U the self-cleavage was 0.02.
A6G G7A U9A A24C showed a self-cleavage of 0.05.
With C8G U32A G33A the self-cleavage was 0.01.
For C8G A16U G44C, the self-cleavage was 0.03.
With G5A G35U C45A the self-cleavage was 0.05.
G2C C10A G19U gave a self-cleavage of 0.01.
With G2U C31U A39G C42G the self-cleavage was 0.02.
For G19C C23U G33A A41U, the self-cleavage was 0.45.
Variant A12C A14C G27U U43A has a self-cleavage of 0.01.
In the case of G1A U20A A24U G35A G44C, the self-cleavage is reported as 0.04.
In the case of G2U U9C A24C A41C G44A, the self-cleavage is reported as 0.01.
A4U U34A U38C showed a self-cleavage of 0.08.
C13A G22A A39G gave a self-cleavage of 0.05.
For C3G A12C C15U A16G U34G C42U G44C, the self-cleavage was 0.01.
In the case of C8U C18A U32G A39U, the self-cleavage is reported as 0.02.
A4U U9G G27C showed a self-cleavage of 0.06.
For C3G A6U G40C, the self-cleavage was 0.05.
With C15A C23G U28A the self-cleavage was 0.02.
Variant G5A C23A A24U U34G has a self-cleavage of 0.05.
A14U G29U G35U showed a self-cleavage of 0.16.
Work on C3A G19U G30A yielded a self-cleavage of 0.1.
C13A G22A G30C C42U gave a self-cleavage of 0.11.
Variant C3U A16G C18A C37A U38C has a self-cleavage of 0.02.
C8A A14G G17U C23G gave a self-cleavage of 0.07.
C18A G33A U43C showed a self-cleavage of 0.
Variant G2C G30A U32C has a self-cleavage of 0.06.
With A14G G17C G40A the self-cleavage was 0.02.
In the case of C3U G5U C10A, the self-cleavage is reported as 0.04.
G19C A39G C46G showed a self-cleavage of 0.05.
A6C C13U U20C showed a self-cleavage of 0.06.
G5A A11U A24U gave a self-cleavage of 0.03.
A14C G19A U34G gave a self-cleavage of 0.08.
For G7C A16C U34G, the self-cleavage was 0.01.
Work on G29C U32A G33A yielded a self-cleavage of 0.12.
Work on C13G U20G U34A C46U yielded a self-cleavage of 0.
With U9C A11G A14C C23U G44A C45U C46A the self-cleavage was 0.01.
Work on A14G C23G U43C yielded a self-cleavage of 0.1.
In the case of A12C C15G A24C C46G, the self-cleavage is reported as 0.02.
For G7C G19A C31A G40A, the self-cleavage was 0.02.
Work on G40U A41C C42A yielded a self-cleavage of 0.06.
C3U G40A A41C C42U gave a self-cleavage of 0.06.
With A4G G27U A39U A41G the self-cleavage was 0.07.
Variant C3A C13A C15U has a self-cleavage of 0.44.
Work on U20A G29A C31U U32A G36C yielded a self-cleavage of 0.01.
Variant A11C C13G G19A C42G has a self-cleavage of 0.03.
In the case of A24G U28C G36U U38A, the self-cleavage is reported as 0.04.
Work on G5U C8U G40U yielded a self-cleavage of 0.17.
A4G G7C C15A C18A U20C U34G U38G A39G A41C showed a self-cleavage of 0.03.
In the case of A14U C23U G29C C31G G36U G40A, the self-cleavage is reported as 0.08.
With G5C G22U C31A the self-cleavage was 0.03.
Variant G1C A6U G7A has a self-cleavage of 0.02.
With G1U A4G G27C G33C U38C the self-cleavage was 0.05.
C31G U34C G35C G44U showed a self-cleavage of 0.04.
Variant C10U C15U C23A A39U C46A has a self-cleavage of 0.7.
Work on G1A U20C G27A G29U G36A C46U yielded a self-cleavage of 0.08.
Work on C10A C13G A26U G27A G29U yielded a self-cleavage of 0.
In the case of A6C C10U C18U C45G, the self-cleavage is reported as 0.01.
In the case of C8U G27U C45G, the self-cleavage is reported as 0.08.
Work on A16G A24U C31U yielded a self-cleavage of 0.01.
For G2U A4C A11U G33C, the self-cleavage was 0.05.
A11G C15G C37U A41U C42A showed a self-cleavage of 0.01.
Variant C18G G36U G40U A41G has a self-cleavage of 0.04.
For A6C A26U U28C C46A, the self-cleavage was 0.04.
In the case of C10G C15G U34C, the self-cleavage is reported as 0.02.
G1U A6C G19C C37U gave a self-cleavage of 0.
Variant U20C G40U G44U C46A has a self-cleavage of 0.01.
A24G C37U G40C showed a self-cleavage of 0.27.
G7A C18U C37A showed a self-cleavage of 0.6.
G1U C8G C13A G35U A41C gave a self-cleavage of 0.02.
A14G A16U U20A gave a self-cleavage of 0.03.
G2C C13A U38A showed a self-cleavage of 0.05.
For G1U U32A C45U, the self-cleavage was 0.06.
A11U C23A C45U gave a self-cleavage of 0.08.
Variant C10A C18A G33U has a self-cleavage of 0.05.
With A12G C15A C46G the self-cleavage was 0.05.
G22U C23U G27C G30U G35U G40C C45U showed a self-cleavage of 0.04.
For G21U C31A C37U, the self-cleavage was 0.02.
Work on A4C A6U A12G G29U yielded a self-cleavage of 0.02.
Work on A11G G17U G21U A25C yielded a self-cleavage of 0.
G2U A11G G19A gave a self-cleavage of 0.
In the case of G7C U20G U34A G40C, the self-cleavage is reported as 0.01.
For G21U A25C U38G C45A, the self-cleavage was 0.02.
With G17U C18A U34G the self-cleavage was 0.01.
With G19U U20G G35U G44A the self-cleavage was 0.15.
For C13G G17C C31A, the self-cleavage was 0.
In the case of A4G C8A A26U G33A G40C, the self-cleavage is reported as 0.16.
With A26U G30U G33U the self-cleavage was 0.09.
With G5C C18U G44U the self-cleavage was 0.06.
With C8U A11G C13A C23A A24G U28C C31U the self-cleavage was 0.02.
In the case of G5C C10A G35A A39U, the self-cleavage is reported as 0.04.
G2A U38A C45A showed a self-cleavage of 0.72.
Variant C8U A25C U28C G36U has a self-cleavage of 0.11.
Variant C8U C23G A25C C31U has a self-cleavage of 0.15.
Work on U20C G21U G30C yielded a self-cleavage of 0.32.
C23G G33A G44C showed a self-cleavage of 0.03.
With G2A C13G G36C the self-cleavage was 0.21.
C8A G30U C31A U38C showed a self-cleavage of 0.32.
With C3A C18U G30U C42U the self-cleavage was 0.13.
G1C A12U U38A G44A C45A gave a self-cleavage of 0.03.
Variant C13A G22U C23G has a self-cleavage of 0.42.
For G5A C15A G17U A25C G27C, the self-cleavage was 0.01.
U9G G21U G30C C31U showed a self-cleavage of 0.05.
Work on G17U A25G G33U yielded a self-cleavage of 0.07.
C10U G29U C45U gave a self-cleavage of 0.48.
C10U A25U C46G showed a self-cleavage of 0.24.
Work on G21A G29U C46U yielded a self-cleavage of 1.45.
C18G G22U A41U showed a self-cleavage of 0.39.
With U9C G35A C46A the self-cleavage was 0.02.
G5A G21C C46G showed a self-cleavage of 0.09.
With A25G G30A U32A G44C the self-cleavage was 0.05.
Work on U9A A25C G40C yielded a self-cleavage of 0.08.
In the case of G2U A6U C13U A26C U34G, the self-cleavage is reported as 0.33.
For G2C G36C U38C C46G, the self-cleavage was 0.07.
Work on G2A C18U U20G C23A yielded a self-cleavage of 0.66.
A6C G7U U20G C45A gave a self-cleavage of 0.05.
Work on C8A C15U G27U G33A A39C yielded a self-cleavage of 1.
With G2U A11U U38A the self-cleavage was 0.01.
Work on A12G U20C A25C G40A G44A yielded a self-cleavage of 0.
C3G A4C G19U A39U gave a self-cleavage of 0.1.
With C13A C18U U20C U34A G35C the self-cleavage was 0.04.
G1C A14C G35U G44C gave a self-cleavage of 0.01.
For A12C G30A C42A, the self-cleavage was 0.03.
For A25C C31G G44U C45G, the self-cleavage was 0.03.
Work on U9C U20A A24G G30U U34C yielded a self-cleavage of 0.
For G2C G36U G40C, the self-cleavage was 0.05.
With C8A C23U G40C the self-cleavage was 0.29.
Work on G7U A16U A24U G27U G36C A41G yielded a self-cleavage of 0.11.
In the case of G1U C3U A4C A11C G17A G21C U34G, the self-cleavage is reported as 0.02.
G2A A16U G33A G36A C42U gave a self-cleavage of 0.04.
Variant A6G C15A U20G A25U U32C has a self-cleavage of 0.05.
C15A G17A U28A gave a self-cleavage of 0.02.
C15A G33A G36U C45A gave a self-cleavage of 0.03.
Variant C8A G30C U34A has a self-cleavage of 0.06.
With A25U G27C G35U the self-cleavage was 0.06.
With G5A A14C U32C U43A the self-cleavage was 0.21.
Work on G2U G21C C37U G40A yielded a self-cleavage of 0.01.
A25G G36C C45G gave a self-cleavage of 0.04.
A24U C31A U43A showed a self-cleavage of 0.06.
Work on C23U G30U C42A yielded a self-cleavage of 0.08.
C18U A25U C31G C45A gave a self-cleavage of 0.02.
Work on G17U C18G C31A G40U yielded a self-cleavage of 0.13.
With G5C A24C A26G the self-cleavage was 0.
For G7U U20G U32C U38G, the self-cleavage was 0.
Work on G2A C8A A11U C13U U38A yielded a self-cleavage of 0.04.
